According to the supplement of paper PMC10126150:
Sequences with one replicate were seen in a single cluster, so their values are uncertain.

System: ATP
Assay: switch fluorescence ratio, 500 uM ATP over buffer (Cy3 cluster intensity, sum of 5 cycles each) (fold (ratio)); higher = stronger signal-on switching upon ATP binding; sequences stand for … in TCGTCGGCAGCGTCAGATGTGTATAAGAGACAGTTTTTTTTTTTTTTTTTTTTTTTTT…TC
Details: aptamer strand: ATP DNA aptamer (quencher-CACCTGGGGGAGTATTGCGGAGGAAGG + anchor), 100 nM annealed; ATP concentration: 500 uM; one replicate
Procedure, shortened: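 Cy3-labelled switching-strand clusters on a modified Illumina MiSeq flow-cell were annealed to 100 nM quencher-labelled ATP aptamer and imaged first in selection buffer, then after 15 min with 500 uM ATP at 22 °C. NaOH stripping and re-annealing separated each of five buffer/ATP cycles, and clusters outside 100-1000 RFU were excluded. The fluorescence ratio sums target-cycle Cy3 intensity over buffer-cycle Cy3 intensity per cluster and averages it per switch-domain sequence.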
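Note: ATP exposure 15 min at 22 °C before imaging.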

Row | Sequence | switch fluorescence ratio
1 | GAGGTCCCGG | 1.01
2 | TTTTGGACTT | 1
3 | AAGGGCGTCG | 0.994
4 | CTTTTGGCGC | 1.04
5 | GTCGCCCAGC | 0.995
6 | ACTATAGCA | 1.05
7 | AAGTTATCTC | 1.03
8 | CACTTGCTAG | 1
9 | ATACAAGAGT | 1
10 | CAGGCAGAGA | 0.961
11 | GATGGGTCGC | 0.971
12 | GACATTTAGA | 1.01
13 | ACCGACACGT | 1.28
14 | TGATCGTGAC | 1.05
15 | ATGCGCCTTA | 1.01
16 | GTGACAGCGT | 1.04
17 | CCTTATACAA | 1.16
18 | AATAATGTTT | 1.03
19 | GTCGGAATAT | 1.02
20 | TTATCGGATG | 0.956
21 | ACGTTGTCT | 0.989
22 | AAGACTATGC | 0.974
23 | CGGACGCTG | 1.03

Row | Sequence | switch fluorescence ratio
24 | GACCCAACAA | 1.04
25 | GAGAGCTAGA | 1.01
26 | TGTCGAGCAG | 1
27 | TTGAAGGGA | 0.983
28 | AGAAGGAGGA | 0.988
29 | GGGGATTAG | 0.987
30 | AACTTGTCTA | 1.03
31 | GTGCTTTTTC | 0.988
32 | GTTCTTAAAC | 0.987
33 | TAGATCTACC | 1.04
34 | TACTCACCCT | 1.54
35 | GGGATGCTTG | 1.12
36 | AACGTCGTGA | 0.979
37 | CTTGAAATAC | 1.09
38 | ATGGAAAACG | 1.01
39 | GTGGTATCT | 1.02
40 | TCGCTCACGC | 1.06
41 | ATACTATGCT | 0.994
42 | CAAAGCCCGT | 1.03
43 | CAGTGAGCAA | 3.69
44 | AGGCTCCCAC | 1.18
45 | CAGTAGAGGC | 1.04
46 | TATAAGCGCG | 1.06

Row | Sequence | switch fluorescence ratio
47 | GGCTACGTGG | 0.951
48 | GCTGTTAGAC | 1.06
49 | TGCAGCACC | 1.2
50 | CGGATACCGC | 1.03
51 | TACTAGAGGT | 0.97
52 | TTCCGACAGT | 1.54
53 | CCCAAGAT | 1.18
54 | AAGGTGGCGA | 0.947
55 | ACCAGCGGGA | 1.01
56 | ATTATGGCC | 1
57 | TTTATATTTA | 0.975
58 | GCTGAGAATA | 0.996
59 | AGGGGCGATG | 0.965
60 | GCAGGAACTA | 0.988
61 | GAGGAGAGAT | 0.949
62 | AATGGACGGG | 0.996
63 | CATTATTCCA | 0.987
64 | GTCACAATTT | 0.978
65 | CTTTGGGTAT | 1.03
66 | ACGAAGACCG | 0.944
67 | TTTCTATAT | 1
68 | AGGGTTCTCA | 1.02
69 | TGGTGCGAAG | 0.999

Row | Sequence | switch fluorescence ratio
70 | GTGTCTTCGC | 1.09
71 | AGAAAGACGA | 1.03
72 | TTCTTCATCG | 1.01
73 | CATTTAAGGA | 0.975
74 | ATTCTGGGCA | 1.04
75 | TTAAGCTCTG | 1.01
76 | TGACAGCCA | 1.8
77 | AGTTAGGGT | 1.02
78 | CGAAGGTGTA | 1.05
79 | TAATTAGTAA | 0.953
80 | AAGCTCATTC | 0.934
81 | TCGTTCTCGC | 1.06
82 | CATCCATAAT | 1.29
83 | ACGGTTAAAT | 0.999
84 | CACGAATGAG | 1.02
85 | CAAGTGCCCG | 0.958
86 | AAGAAGCAAA | 1.05
87 | TGGGATAAGG | 0.942
88 | TACTGAGCGC | 1
89 | CTTTGTAAAT | 0.992
90 | TTTGTGGA | 0.954
91 | ATGGTAGTGA | 0.996
92 | GATACCGAAC | 1.57

Row | Sequence | switch fluorescence ratio
93 | GCGTGGCATT | 1
94 | GATTTGGGCC | 1.02
95 | TGAGTTCAGC | 1.03
96 | TGAGAGCATG | 1.01
97 | CGGGTAACCA | 1.05
98 | GTTGGTCGCA | 1.05
99 | GAACATGCCT | 1.08
100 | CATGTTAGGA | 1.02
101 | CTGGAAGGTC | 1.03
102 | TGGGATTCTT | 1.01
103 | AGCAGCAGAT | 1.07
104 | TCAGAGGGG | 0.982
105 | CAAGTCTTTC | 0.984
106 | TTCTGGACAG | 0.993
107 | GATTTTGAGT | 0.959
108 | TCCTTATATT | 1.04
109 | CCCTTACAGT | 1.03
110 | AATTCGGTTA | 1.02
111 | ATTAAGGTCT | 1
112 | AATATATCC | 0.992
113 | ATAATTAGGT | 1.03
114 | GTGTTACGGT | 0.962
115 | AATAGGTAAT | 0.97

Row | Sequence | switch fluorescence ratio
116 | GCGACGCCGC | 1.53
117 | CGCGGGAATC | 1.14
118 | CAAACGATAC | 2.37
119 | GTGAGCTGGG | 0.963
120 | GCATTTGGCG | 1.02
121 | AGGTGGAGTG | 0.955
122 | GACTGATATG | 0.991
123 | AACACATTTT | 1.06
124 | GCTTGGGTT | 1.02
125 | AACACTGATG | 0.943
126 | TAGAAAATCA | 1.12
127 | GTTGTAAAAC | 1.06
128 | CGCGTGCCGC | 1.02
129 | GGTATTGTCG | 0.946
130 | TGATATTGGC | 0.937
131 | TCGGGTCATC | 1.01
132 | AGAAAGTTGC | 1.08
133 | AGATGTCAGG | 0.999
134 | TCTGGTTTAT | 0.983
135 | ATTATTAACA | 0.935
136 | TTTAACTTTT | 0.994
137 | CTTGGAATGC | 3.11
138 | GGAGTCTTTA | 1

Row | Sequence | switch fluorescence ratio
139 | CAAACGTCAT | 1.14
140 | GTCACAGAC | 1.05
141 | ACCTCTGTCT | 1.03
142 | TCAAGGATCT | 0.996
143 | TCACCTATGT | 1.02
144 | CAAAAGGCGA | 0.998
145 | CTTTGAATCT | 1.02
146 | GGTATTGGGT | 0.993
147 | GTTTTCTCGT | 0.95
148 | GGGTCTTCTG | 1.03
149 | GGTTCTTATC | 1.01
150 | ATGTTTAGCG | 0.935
151 | CTTTGTTGGC | 1
152 | TCTGAGTCAT | 1.02
153 | AGATAGTGAG | 0.968
154 | CTTTGGTTCT | 1.01
155 | GAATGTCAAG | 0.981
156 | TGGGAATATA | 0.983
157 | TCGGGGTTAG | 0.986
